Experimental data from publication PMC11995724, “Antibiotic target discovery by integrated phenotypic and activity-based profiling of electrophilic fragments” (Cell chemical biology, 2025).
About 75 (2%) of roughly 3,200 compounds showed an effect of 50% or more. Some of the results follow.

Each molecule was assayed on T1, S. aureus MSSA476. Settings: relative growth, OD600, TSB; 25 µM; inhibitor.
T1 construct: MSSA476
Design: species or system S. aureus MSSA476 (TSB) or V. cholerae SAD30 (LB); 384-well bacterial growth screen at 25 uM, OD600 relative to DMSO control

| Compound | % of control remaining [%] |
| --- | --- |
| CCC(NC(=O)CCl)c1ccc(C)cc1 (centres unmarked) [4-K17, 2-chloro-N-[1-(4-methylphenyl)propyl]acetamide] | 108.623 |
| C=CC(=O)N1CCC(C(=O)N[C@H]2CCC[C@H]2O)CC1 [2-K04, N-[(1S,2R)-2-hydroxycyclopentyl]-1-(prop-2-enoyl)piperidine-4-carboxamide] | 111.053 |
| O=C(O)c1csc(C(=O)CCl)c1 [10-E22, 5-(2-chloroacetyl)thiophene-3-carboxylic acid] | 88.4375 |
| Cl.O=C(CN1CCN(C(=O)CCl)CC1)Nc1cccc(F)c1 [5-P19, 2-[4-(2-chloroacetyl)piperazin-1-yl]-N-(3-fluorophenyl)acetamide hydrochloride] | 109.654 |
| O=C(CCl)NC1CCCc2nc(-c3ccccc3)sc21 (centres unmarked) [7-B04, 2-chloro-N-(2-phenyl-4,5,6,7-tetrahydro-1,3-benzothiazol-7-yl)acetamide] | 81.6327 |
| Cc1cc(CN(Cc2ccn(C)n2)C(=O)CCl)ccc1F [5-G14, 2-chloro-N-[(4-fluoro-3-methylphenyl)methyl]-N-[(1-methyl-1H-pyrazol-3-yl)methyl]acetamide] | 96.5392 |
| C=CC(=O)N1C2CCCC1CC1(C2)NC(=O)NC1=O (centres unmarked) [2-K06, 9-(prop-2-enoyl)-9-azaspiro[bicyclo[3.3.1]nonane-3,4'-imidazolidine]-2',5'-dione] | 92.6023 |
| C=CC(=O)NC1CC(=O)N(CC)C1 (centres unmarked) [2-O22, N-(1-ethyl-5-oxopyrrolidin-3-yl)prop-2-enamide] | 93.2985 |
| CC(C)NC(=O)C(C#N)=Cc1ccc(Cl)cc1Cl [9-K07, 2-cyano-3-(2,4-dichlorophenyl)-N-(propan-2-yl)prop-2-enamide] | 75.8052 |
| C=CC(=O)N1CC(OCc2ccccc2F)C1 [3-I15, 1-{3-[(2-fluorophenyl)methoxy]azetidin-1-yl}prop-2-en-1-one] | 114.933 |
| C=CCNC(=O)C(C#N)=Cc1ccc(C#N)cc1 [8-O07, 2-cyano-3-(4-cyanophenyl)-N-(prop-2-en-1-yl)prop-2-enamide] | 125.477 |
| Cc1ccc(C=C(C#N)C(=O)NC(C)C)o1 [8-I21, 2-cyano-3-(5-methylfuran-2-yl)-N-(propan-2-yl)prop-2-enamide] | 80.332 |
| COc1ccc(CCNC(=O)C(C)Cl)cc1 (centres unmarked) [5-D12, 2-chloro-N-[2-(4-methoxyphenyl)ethyl]propanamide] | 107.104 |
| C=CC(=O)N1CCC(C(=O)N2CCC(c3ncco3)CC2)CC1 [2-B06, 1-{4-[4-(1,3-oxazol-2-yl)piperidine-1-carbonyl]piperidin-1-yl}prop-2-en-1-one] | 104.787 |
| C=CC(=O)N1CCC(c2ccnn2C)CC1 [2-I15, 1-[4-(1-methyl-1H-pyrazol-5-yl)piperidin-1-yl]prop-2-en-1-one] | 108.616 |
| N#CC(=Cc1ccc([N+](=O)[O-])c(Cl)c1)C(=O)NC1CCCCC1 [8-B08, 3-(3-chloro-4-nitrophenyl)-2-cyano-N-cyclohexylprop-2-enamide] | 29.8755 |
| CC(Cl)C(=O)N(Cc1cccs1)[C@@H]1C=C[C@H](CO)C1 (stereo partly drawn) [7-E14, 2-chloro-N-[(1S,4R)-4-(hydroxymethyl)cyclopent-2-en-1-yl]-N-[(thiophen-2-yl)methyl]propanamide] | 102.669 |
| COCCNC(=O)C(C#N)=Cc1ccc(O)cc1 [9-D22, 2-cyano-3-(4-hydroxyphenyl)-N-(2-methoxyethyl)prop-2-enamide] | 77.0037 |
| C=CC(=O)N(Cc1cc(F)c(F)c(F)c1)C(C)C1CCCO1 (centres unmarked) [1-L13, N-[1-(oxolan-2-yl)ethyl]-N-[(3,4,5-trifluorophenyl)methyl]prop-2-enamide] | 106.901 |
| C=CC(=O)N1CC(c2ncon2)C1 [2-I03, 1-[3-(1,2,4-oxadiazol-3-yl)azetidin-1-yl]prop-2-en-1-one] | 118.016 |
| O=C(CCl)c1ccc2[nH]c(=O)[nH]c2c1 [10-I14, 5-(2-chloroacetyl)-2,3-dihydro-1H-1,3-benzodiazol-2-one] | 100.313 |
| N#CC(=Cc1cccc(O)c1)C(=O)NCCc1ccccc1 [8-N03, 2-cyano-3-(3-hydroxyphenyl)-N-(2-phenylethyl)prop-2-enamide] | 116.183 |

| Compound | % of control remaining [%] |
| --- | --- |
| Cc1nc(C)c(C(=O)CCl)o1 [10-N08, 2-chloro-1-(2,4-dimethyl-1,3-oxazol-5-yl)ethan-1-one] | 108.125 |
| Cl.O=C(CN1CCN(C(=O)CCl)CC1)Nc1ccc(F)cc1 [4-J20, 2-[4-(2-chloroacetyl)piperazin-1-yl]-N-(4-fluorophenyl)acetamide hydrochloride] | 128.823 |
| N#CC(=Cc1ccccc1)C(=O)Nc1nnn[nH]1 [8-J14, 2-cyano-3-phenyl-N-(1H-1,2,3,4-tetrazol-5-yl)prop-2-enamide] | 103.237 |
| CC(Cl)C(=O)N1C2C=C(c3ccccc3)CC1CC2 (centres unmarked) [7-C09, 2-chloro-1-{3-phenyl-8-azabicyclo[3.2.1]oct-2-en-8-yl}propan-1-one] | 113.972 |
| CCOc1ccc(C=C(C#N)C(=O)Nc2ccncc2)cc1 [8-I22, 2-cyano-3-(4-ethoxyphenyl)-N-(pyridin-4-yl)prop-2-enamide] | 84.6473 |
| C=CC(=O)NCCCn1ccnc1C#N [2-N05, N-[3-(2-cyano-1H-imidazol-1-yl)propyl]prop-2-enamide] | 87.7285 |
| Cc1ccc(NC(=O)C(C#N)=Cc2ccc3c(c2)OCCO3)c(C)c1 [9-H03, 2-cyano-3-(2,3-dihydro-1,4-benzodioxin-6-yl)-N-(2,4-dimethylphenyl)prop-2-enamide] | 132.434 |
| CC(Cl)C(=O)N[C@H]1C[C@@H]1c1cnn(-c2ccccc2)c1 (mixture of isomers) [7-M08, rac-2-chloro-N-[(1R,2S)-2-(1-phenyl-1H-pyrazol-4-yl)cyclopropyl]propanamide] | 77.551 |
| CC(Cl)C(=O)NCCc1nnnn1-c1ccccc1 (centres unmarked) [7-G17, 2-chloro-N-[2-(1-phenyl-1H-1,2,3,4-tetrazol-5-yl)ethyl]propanamide] | 91.6797 |
| Cc1ccccc1N1C(=O)C=CC1=O [10-J13, 1-(2-methylphenyl)-2,5-dihydro-1H-pyrrole-2,5-dione] | 117.5 |
| C=CC(=O)N1CCCC(n2cncn2)C1 (centres unmarked) [2-C03, 1-[3-(1H-1,2,4-triazol-1-yl)piperidin-1-yl]prop-2-en-1-one] | 116.623 |
| Cc1noc(C23CC(CN2C(=O)C(C)Cl)C3)n1 (centres unmarked) [7-E10, 2-chloro-1-[1-(3-methyl-1,2,4-oxadiazol-5-yl)-2-azabicyclo[2.1.1]hexan-2-yl]propan-1-one] | 102.983 |
| CC(C)c1ccc(-c2cc(NC(=O)CCl)n(-c3ccccc3)n2)cc1 [4-C16, 2-chloro-N-{1-phenyl-3-[4-(propan-2-yl)phenyl]-1H-pyrazol-5-yl}acetamide] | 68.223 |
| C=CC(=O)NCc1cccc(NS(C)(=O)=O)c1 [3-K15, N-[(3-methanesulfonamidophenyl)methyl]prop-2-enamide] | 102.046 |
| N#CC(=Cc1csnn1)C(=O)Nc1ccc(Oc2ccccc2)cc1 [8-M12, 2-cyano-N-(4-phenoxyphenyl)-3-(1,2,3-thiadiazol-4-yl)prop-2-enamide] | 94.6058 |
| CC1=C(C#N)C(=O)N(C2CCS(=O)(=O)C2)C(=O)C1=Cc1ccco1 (centres unmarked) [9-O13, 1-(1,1-dioxo-1lambda6-thiolan-3-yl)-5-[(furan-2-yl)methylidene]-4-methyl-2,6-dioxo-1,2,5,6-tetrahydropyridine-3-carbonitrile] | 125.543 |
| C=CC(=O)N1CCC([C@@H](C)O)CC1 [3-E12, 1-{4-[(1R)-1-hydroxyethyl]piperidin-1-yl}prop-2-en-1-one] | 83.5873 |
| CCn1c2ccccc2c2cc(NC(=O)C(C)Cl)ccc21 (centres unmarked) [4-E12, 2-chloro-N-(9-ethyl-9H-carbazol-3-yl)propanamide] | 114.721 |
| C=CC(=O)NC(Cc1ccccc1)c1ccccn1 (centres unmarked) [2-K14, N-[2-phenyl-1-(pyridin-2-yl)ethyl]prop-2-enamide] | 109.312 |
| C=CC(=O)N1CCC(C(=O)N[C@H]2CC[C@@H](CC#N)C2)CC1 (racemic) [2-G21, rac-N-[(1R,3S)-3-(cyanomethyl)cyclopentyl]-1-(prop-2-enoyl)piperidine-4-carboxamide] | 93.6466 |
| Cc1ccc(C=C(C#N)C(=O)Nc2ccccc2Cl)s1 [9-C22, N-(2-chlorophenyl)-2-cyano-3-(5-methylthiophen-2-yl)prop-2-enamide] | 83.2959 |
| Cc1csc(CN(CC2CCCO2)C(=O)C(C)Cl)n1 (centres unmarked) [7-E09, 2-chloro-N-[(4-methyl-1,3-thiazol-2-yl)methyl]-N-[(oxolan-2-yl)methyl]propanamide] | 87.9121 |
